We go through 36 sequences from the supplement of paper PMC3334620.

The full ranking holds about 33,000 sequences; the median of “E-score (-0.5 to 0.5)” is about -0.016, and the highest 2% start at about 0.32. The list shows a part of the results.

This assay has as its target T1, Stp1 (UniProt B3LFK1).
T1 sequence: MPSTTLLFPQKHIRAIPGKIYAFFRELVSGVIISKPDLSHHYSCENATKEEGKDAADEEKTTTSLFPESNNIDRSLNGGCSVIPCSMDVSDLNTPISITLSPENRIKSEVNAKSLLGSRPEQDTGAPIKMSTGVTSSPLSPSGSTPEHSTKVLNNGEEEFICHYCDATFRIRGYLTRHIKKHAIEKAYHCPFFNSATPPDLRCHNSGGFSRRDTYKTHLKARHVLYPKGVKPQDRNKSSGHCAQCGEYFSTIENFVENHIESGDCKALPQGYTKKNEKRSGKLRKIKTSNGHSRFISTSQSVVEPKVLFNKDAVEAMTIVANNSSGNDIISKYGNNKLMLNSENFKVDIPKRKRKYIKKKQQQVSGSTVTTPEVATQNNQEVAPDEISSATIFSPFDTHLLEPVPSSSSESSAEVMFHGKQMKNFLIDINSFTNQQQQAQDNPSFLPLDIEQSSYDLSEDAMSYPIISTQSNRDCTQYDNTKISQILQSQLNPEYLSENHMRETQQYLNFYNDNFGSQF
The assay is described as follows: PBM E-score (8-mer binding enrichment) (E-score (-0.5 to 0.5)); higher = stronger / more preferred TF binding; most listed sequences are background and not binding sites. The note with it: protein concentration: 200 nM; construct: GST-full length. The procedure, abridged:
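Universal all-10-mer Agilent arrays, double-stranded by primer extension on fresh or once-stripped slides, were probed with about 100-200 nM GST-tagged yeast transcription factors made by PURExpress. Fluorescent anti-GST detected bound protein, and masliner normalised the scans. E-scores from the Universal PBM Analysis Suite were given to each ungapped eight-base word pooled with its reverse complement.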
Turning to GGGGTATA, the “PBM E-score” value is -0.213.

Regarding CGGCATTC, the “PBM E-score” value came to 0.441.

On to GGACAAAA, for which the “PBM E-score” value was found to be 0.0594.

As to ATTGGCGC, the “PBM E-score” value was 0.189.

In the case of CAAATGTC, the “PBM E-score” value is -0.142.

For the sequence TCATTTCA, the “PBM E-score” value was determined as 0.0273.

Turning to CTGAGAAC, the “PBM E-score” value came out at 0.034.

AAAGGGCC: the “PBM E-score” value is -0.0703.

Regarding CTGGGAAG, the “PBM E-score” value was -0.137.

In the case of ACACGCCA, the “PBM E-score” value was found to be 0.0386.

In the case of ACTCCCGC, the “PBM E-score” value was -0.0607.

Take ATGTAAAC: the “PBM E-score” value turned out to be 0.162.

Regarding CTCTTACA, the “PBM E-score” value was -0.0752.

Regarding CGGATCTA, the “PBM E-score” value was 0.0298.

Turning to CGGAGCAA, the “PBM E-score” value is -0.0204.

On to GAATAGGA, for which the “PBM E-score” value was -0.0336.

With ATCATCAT, the “PBM E-score” value came out at 0.0193.

For ACGTTTCG, the “PBM E-score” value amounted to 0.028.

Turning to ACAGATAT, the “PBM E-score” value is -0.0191.

AAACTAAG: the “PBM E-score” value was 0.252.

As for CATCAAAA, the “PBM E-score” value worked out at 0.22.

For the sequence GCCCGCAA, the “PBM E-score” value was -0.145.

In the case of AAAGGACT, the “PBM E-score” value is -0.204.

As to GTTCGCCA, the “PBM E-score” value is -0.00728.

In the case of CGGCAACA, the “PBM E-score” value was 0.368.

Regarding AATAATGC, the “PBM E-score” value came out at 0.243.

As to CCCCGACC, the “PBM E-score” value is -0.273.

For the sequence AAACCTGC, the “PBM E-score” value was -0.0641.

CGTCACCA: the “PBM E-score” value is -0.0712.

On to AGAGTTTG, for which the “PBM E-score” value was -0.0663.

With TACGCCTA, the “PBM E-score” value stood at 0.03.

Turning to GGGTGTCA, the “PBM E-score” value is -0.166.

Consider AGCTGTCC, for which the “PBM E-score” value is -0.166.

Take TACGAAAA: the “PBM E-score” value came out at 0.168.

Regarding ACTAAAAC, the “PBM E-score” value was -0.0146.

Turning to TAGAGCGA, the “PBM E-score” value was -0.0163.
